Molecular target: T1, mCherry-Nanog (UniProt Q80Z64 1-305)
T1 sequence (looked up): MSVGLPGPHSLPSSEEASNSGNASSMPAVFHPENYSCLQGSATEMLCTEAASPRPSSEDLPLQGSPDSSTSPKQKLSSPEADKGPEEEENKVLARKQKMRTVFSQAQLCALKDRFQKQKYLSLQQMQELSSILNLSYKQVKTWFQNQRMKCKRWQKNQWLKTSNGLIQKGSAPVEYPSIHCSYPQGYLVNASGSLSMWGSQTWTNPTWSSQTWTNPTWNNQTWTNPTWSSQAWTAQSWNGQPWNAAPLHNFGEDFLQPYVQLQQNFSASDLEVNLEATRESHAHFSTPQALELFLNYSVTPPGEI
Experiment: fluorescence cross-correlation spectroscopy

B1: GFP-Oct4 (natural protein)
chain: not shown
complex %: 12.5%

Source: doi:10.1101/2020.06.24.169185 (bioRxiv, 2020)
